Test results: PubChem BioAssay AID1508623 (National Center for Advancing Translational Sciences (NCATS), 2021)
In all, about 48,000 compounds went through this assay and about 450 (0.94%) were called active. About 19% were inconclusive and are not listed. Calls follow the shape of the dose curve; as a rule, active = well fitted inhibition curve with a large enough effect; inconclusive = small, poorly fitted or top-dose-only effect; inactive = no such curve, though single readings can be large or run the other way. The list shows a part of the results.

assay: Primary qHTS for Identification of Small Molecule Inhibitors of Huntingtin Promoter Activity; conditions: HEK293 HTT promoter firefly luciferase reporter (activity 0% = vehicle and -100% = no light), 24 h; series mostly up to 57.5 µM; activity change, negative = inhibition: at the top concentration; also: nearly all actives have a fitted effect of over 50% in size
How it was run: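 HEK293 Fluc reporter, 2,500 cells/well, 24 h pre-culture; cpds up to 57.5 uM final, 24 h 37 degrees C; Dual-Glo, 10 min RT; normalized vehicle = 0%, zero RLU = -100%.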
Potency is read from the fitted curve at half-maximal effect.

| SMILES | activity change, negative = inhibition | Potency |
| --- | --- | --- |
| O=S(=O)(c1ccc(-c2cc(C(F)(F)F)on2)s1)N1CCN(c2ccccc2)CC1 | inactive: 9.25% |  |
| COc1ccc(S(=O)(=O)N2CCN(Cc3ccc4c(c3)OCO4)CC2)cc1C | inactive: -22.6% |  |
| CCOC(=O)c1cnc2c(Cl)cc(Cl)cc2c1Nc1cc(C(=O)O)ccc1C | inactive: -15.9% |  |
| Cc1cccc(C)c1NC(=O)C(=O)NCC(c1ccc2c(c1)OCO2)N1CCOCC1 (centres undefined) | inactive: -26.4% |  |
| COCCCn1c(=N)c(C(=O)NCc2ccco2)cc2c(=O)n3cccc(C)c3nc21 | inactive: 0.405% |  |
| CCOC(=O)c1c(NC(=O)COc2ccc(Br)cc2)sc2c1CCCC2 | inactive: -0.519% |  |
| CCc1ccc(S(=O)(=O)c2nnn3c2nc(Nc2ccc(C)c(Cl)c2)c2sccc23)cc1 | inactive: 0.29% |  |
| O=C(Cn1ncn2nc(-c3cccs3)cc2c1=O)NCc1ccc(Cl)cc1 | inactive: -1.41% |  |
| CCOC(=O)CN1C(C(=O)c2ccccc2)=C(OC(=O)C(C)(C)C)c2ccccc2S1(=O)=O | inactive: 5.5% |  |
| CC(=O)Nc1cc(C(=O)NCc2ccc(C)cc2)ccc1S(=O)(=O)c1ccc(Cl)cc1 | inactive: -18.8% |  |
| CSc1cccc(NC(=O)Cn2c(=O)n(Cc3ccccc3)c(=O)c3sc4ccccc4c32)c1 | inactive: -15.2% |  |
| Cc1cc(C)n(-c2nc3cc(Cl)ccc3nc2Nc2ccc(C)c(F)c2)n1 | inactive: -9.03% |  |
| CCn1ccc2cc(S(=O)(=O)N3CCC(C(=O)NCc4cccc(Cl)c4)CC3)ccc21 | inactive: -20.8% |  |
| Cc1ccc(-n2ncc(C(=O)NCCN3CCCC3)c2C2CCN(C(=O)OC(C)(C)C)CC2)cc1 | inactive: -2.01% |  |
| CCOc1ccc(N(C)S(=O)(=O)c2c(C(=O)N3CCC(C)CC3)c(C)n(C)c2C)cc1 | inactive: -23.4% |  |
| Cc1ccc(NC(=O)Cn2nnc3sc4c(c3c2=O)CCC(C)C4)cc1 (centres undefined) | inactive: -9.18% |  |
| COc1ccc(Cn2c(CCC(=O)Nc3ccc(C)cc3)nc3cccnc32)cc1 | inactive: -26.2% |  |
| CC1(C)OC[C@@H]2O[C@@]3(C(=O)O)OC(C)(C)O[C@H]3[C@@H]2O1 | inactive: 2.72% |  |
| CC(C)CCNS(=O)(=O)c1ccc(N2CCCCS2(=O)=O)cc1 |  | active: 14.1 µM |
| CCOc1ccc(C(=O)c2cn(CC(=O)Nc3ccc4c(c3)OCCO4)c3ccc(F)cc3c2=O)cc1 | inactive: -6.9% |  |

| SMILES | activity change, negative = inhibition | Potency |
| --- | --- | --- |
| COC(=O)CN1C(=O)CSc2ccc(S(=O)(=O)Nc3ccc(C(C)=O)cc3)cc21 | inactive: -12.4% |  |
| Cc1cccc(C)c1OC(=O)CSc1nnc(CNC(=O)c2ccccc2)o1 | inactive: -20.4% |  |
| CC1CCN(C(=O)CSc2nnc(-c3ccccc3)o2)CC1 | inactive: 23.9% |  |
| O=C(CSc1oc(-c2ccccc2)nc1S(=O)(=O)c1ccc(Cl)cc1)NC1CCCCC1 | inactive: 7.89% |  |
| CCCc1nnc(NC(=O)Cc2coc3ccc(C(C)C)cc23)s1 | inactive: -27.5% |  |
| COCCCNC(=O)CSc1nc2cc3c(cc2c(=O)n1CCCCCC(=O)NCc1ccc(OC)cc1)OCO3 | inactive: -11.7% |  |
| CC(C)COC(=O)Cn1nnc2sc(-c3ccccc3)cc2c1=O | inactive: 2.77% |  |
| Cc1cc(C)c(NS(=O)(=O)c2cc(-c3onc(C)c3C)ccc2C)c(C)c1 | inactive: -16% |  |
| CC1CCN(C(=O)c2ccc3c(c2)N(Cc2ccccc2)C(=O)c2ccccc2S3(=O)=O)CC1 | inactive: -28.6% |  |
| O=C(Nc1cccc(C(F)(F)F)c1)c1cc(S(=O)(=O)N2CCCC2)c[nH]1 | inactive: -11.4% |  |
| COc1ccccc1-c1noc(-c2ccc(NCc3ccco3)c([N+](=O)[O-])c2)n1 | inactive: 49.3% |  |
| COc1ccc(NC(=O)Cn2nnc(C(=O)NCc3ccc4c(c3)OCO4)c2N)cc1 | inactive: -16.8% |  |
| Cc1cccc(N2CCN(C(=O)c3ccc4c(Cl)c5c(nc4c3)CCCC5)CC2C)c1 (centres undefined) | inactive: -4.91% |  |
| CCN(Cc1ccccc1)Cc1c(O)ccc2c(=O)c(-c3ccc(Cl)cc3)coc12 | inactive: -4.71% |  |
| O=C(NCc1ccccc1Cl)c1cnc(N2CCOCC2)c2ccccc12 | inactive: -6.92% |  |
| Cc1ccc(-c2cc(-c3coc4ccc(Cl)cc4c3=O)c3c(n2)-c2ccccc2OC3)cc1 | inactive: -9.33% |  |
| Cc1ccc2cccc(NC(=O)c3cccc4c(Cl)cccc34)c2n1 | inactive: -1.44% |  |
| O=C(C1CCC(Cn2c(=O)c3sccc3n(Cc3ccccc3)c2=O)CC1)N1CCCCC1 (centres undefined) | inactive: -24.6% |  |
| COc1ccc(OC)c(NC(=O)CC2C(=O)NCCN2C(=O)C(F)(F)F)c1 (centres undefined) | inactive: -18% |  |
| COc1ccc(NC(=O)c2oc3ccccc3c2NC(=O)C23CC4CC(CC(C4)C2)C3)c(OC)c1 | inactive: -11.3% |  |

| SMILES | activity change, negative = inhibition | Potency |
| --- | --- | --- |
| COc1ccc2c(c1)c(CC(=O)Nc1ccc(C(C)=O)cc1)c(C)n2C(=O)c1ccc(Cl)cc1 | inactive: -24.1% |  |
| COc1ccc(S(=O)(=O)NCCS(=O)(=O)N2CCN(c3ccccc3)CC2)cc1OC | inactive: -18.2% |  |
| Cc1ccc(NC(=O)c2oc3ccccc3c2NC(=O)c2ccc(F)c(F)c2)cc1 | inactive: -12.2% |  |
| CCc1ccc(NC(=O)CSc2nc3c(oc4ccccc43)c(=O)n2-c2cccc(C)c2)cc1 | inactive: -18.8% |  |
| O=C(Nc1nc2ccc(Cl)cc2s1)c1cc(=O)c2ccccc2o1 | inactive: 8.52% |  |
| Cc1ccc(CNC(=O)CCCCCn2c(=O)c3sccc3n(CC(=O)Nc3ccc(C)c(F)c3)c2=O)cc1 | inactive: -16.4% |  |
| Cc1ccc(NC(=O)c2ccc(CN3CCN(C)CC3)cc2)cc1Nc1nccc(-c2cccnc2)n1 | inactive |  |
| CC(C)CN(CCCNC(=O)c1cc(=O)[nH]c2ccc(S(=O)(=O)N3CCCC3)cc12)CC(C)C | inactive: -18.2% |  |
| CCc1cnc2c(c1SCc1ccccc1C)c(=O)n(C)c(=O)n2C | inactive: -14.6% |  |
| COc1cccc(C(=O)NC(=NCCc2c[nH]c3ccc(OC)cc23)Nc2nc(C)cc(C)n2)c1 | inactive: -30.8% |  |
| CN1CCc2c(sc(NC(=O)CSc3ccc(F)cc3)c2-c2nc3ccccc3s2)C1 | inactive: -17.3% |  |
| COc1cc2c(cc1OC)n(CC(=O)c1cccc(Cl)c1)c(=O)n1nc(CCn3nc(C)cc3C)nc21 | inactive: -19.2% |  |
| CCOCCCNC(=O)c1cc(Sc2cccc(Cl)c2)nc2ccccc12 | inactive: -24.7% |  |
| O=C(CCN1C(=O)c2ccccc2Sc2ncccc21)Nc1ccc(F)cc1F | inactive: -9.24% |  |
| COc1ccc(C2NC(=O)NC(C)=C2C(=O)Nc2ccccc2)cc1OC (centres undefined) | inactive: -10.8% |  |
| Cc1ccc(CC(=O)Nc2ccc3c(c2)N(C)C(=O)c2ccccc2S3)cc1 | inactive: -28.3% |  |
| CCOC(=O)c1ccc(NC(=O)C(Cc2ccccc2)N2Cc3ccccc3C2=O)cc1 (centres undefined) | inactive: -10.6% |  |
| Cc1ccc(-c2nn3c(=O)cc(CN4CCN(C(=O)/C=C/c5ccccc5)CC4)nc3s2)cc1 | inactive: -16.8% |  |
| CCOC(=O)c1ccc(NC(=O)CSc2cn(CC(=O)N3CCCC3)c3ccccc23)cc1 | inactive: -28.2% |  |
